Test results from article PMC3733129.
No constants are given. Whether binding was seen depends on the method and setting. For some assays here: Binding seen in cells or lysates may run through a third protein. Some binding calls cover weakened binding; strength is not graded here.

Sequences of proteins named here, by UniProt entry; tags and fusion partners are left off.
UniProt P18887: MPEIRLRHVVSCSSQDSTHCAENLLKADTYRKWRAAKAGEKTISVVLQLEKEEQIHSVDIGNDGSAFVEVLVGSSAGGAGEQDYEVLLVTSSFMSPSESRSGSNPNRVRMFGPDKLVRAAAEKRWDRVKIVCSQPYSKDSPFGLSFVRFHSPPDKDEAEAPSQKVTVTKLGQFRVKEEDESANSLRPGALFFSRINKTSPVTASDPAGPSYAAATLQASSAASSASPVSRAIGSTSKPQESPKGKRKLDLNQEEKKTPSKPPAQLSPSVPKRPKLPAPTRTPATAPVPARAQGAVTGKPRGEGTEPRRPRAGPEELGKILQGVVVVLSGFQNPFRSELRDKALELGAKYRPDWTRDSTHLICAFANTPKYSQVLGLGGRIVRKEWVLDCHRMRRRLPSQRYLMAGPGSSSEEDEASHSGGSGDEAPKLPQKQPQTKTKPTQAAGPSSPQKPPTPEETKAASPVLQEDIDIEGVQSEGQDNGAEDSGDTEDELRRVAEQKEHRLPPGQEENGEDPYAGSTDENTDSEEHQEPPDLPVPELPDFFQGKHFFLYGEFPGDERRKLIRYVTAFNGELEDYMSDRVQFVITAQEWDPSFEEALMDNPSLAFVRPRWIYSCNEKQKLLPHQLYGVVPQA

Tests used:
[1] = biological target: FLAG-N311 mutant of NEIL1 (human) (UniProt Q96FI4); experiment: proximity ligation; In situ PLA (Duolink) in fixed, permeabilised HEK293 cells stably expressing FLAG-WT NEIL1 or FLAG-N311; mouse FLAG Ab and rabbit Abs for Polβ, LigIIIα or XRCC1; nuclear foci
[2] = biological target: FLAG-tagged WT NEIL1 (human) (UniProt Q96FI4); experiment: as above
[3] = biological target: FLAG-N311 mutant of NEIL1 (human) (UniProt Q96FI4); experiment: co-IP; HEK293 cells stably expressing FLAG-NEIL1 or FLAG-N311; lysate digested with 500 units/ml benzonase at 37 °C for 30 min; anti-FLAG Ab agarose beads, 3 h at 4 °C; washed with cold Tris-buffered saline; Western analysis
[4] = biological target: FLAG-tagged WT NEIL1 (human) (UniProt Q96FI4); experiment: as above
[5] = biological target: Recombinant wild-type (WT) NEIL1 (human) (UniProt Q96FI4); experiment: far-Western, overlay or dot blot; WT NEIL1 and N311 (40 pmol) on nitrocellulose after 12% SDS-PAGE, denatured in situ with 6M guanidine-HCl and renatured; membrane incubated with Polβ, LigIIIα or XRCC1 (10 pmol/mL) in PBS, 0.5% nonfat dried milk, 0.05% Tween 20, 10 mM TMAO, 1 mM DTT for 3 h; immunoblotting; both purified

Row | Substance | binding [1] | binding [2] | binding [3] | binding [4] | binding [5]
1 | XRCC1, endogenous in HEK293 cells (from UniProt P18887 1-633) | no binding | binds | no binding | binds | 
2 | XRCC1, recombinant (from UniProt P18887 1-633) |  |  |  |  | binds
